Assay results reported in article PMC4336329 (PLoS ONE, 2015).
Screen size: about 310,000 compounds; about 14,000 (4.5%) showed an effect of 50% or more. The effect is printed as a negative number. The list shows a part of the results.

These compounds were tested against human ether-à-go-go-related gene (hERG) potassium channel (human, UniProt Q12809) (assay: primary screen, population patch clamp on CHO cells stably expressing hERG).
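Also: peak tail current of the secondary pulse compared with the same well before compound.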

Sequence of human ether-à-go-go-related gene (hERG) potassium channel (Q12809 whole entry, looked up): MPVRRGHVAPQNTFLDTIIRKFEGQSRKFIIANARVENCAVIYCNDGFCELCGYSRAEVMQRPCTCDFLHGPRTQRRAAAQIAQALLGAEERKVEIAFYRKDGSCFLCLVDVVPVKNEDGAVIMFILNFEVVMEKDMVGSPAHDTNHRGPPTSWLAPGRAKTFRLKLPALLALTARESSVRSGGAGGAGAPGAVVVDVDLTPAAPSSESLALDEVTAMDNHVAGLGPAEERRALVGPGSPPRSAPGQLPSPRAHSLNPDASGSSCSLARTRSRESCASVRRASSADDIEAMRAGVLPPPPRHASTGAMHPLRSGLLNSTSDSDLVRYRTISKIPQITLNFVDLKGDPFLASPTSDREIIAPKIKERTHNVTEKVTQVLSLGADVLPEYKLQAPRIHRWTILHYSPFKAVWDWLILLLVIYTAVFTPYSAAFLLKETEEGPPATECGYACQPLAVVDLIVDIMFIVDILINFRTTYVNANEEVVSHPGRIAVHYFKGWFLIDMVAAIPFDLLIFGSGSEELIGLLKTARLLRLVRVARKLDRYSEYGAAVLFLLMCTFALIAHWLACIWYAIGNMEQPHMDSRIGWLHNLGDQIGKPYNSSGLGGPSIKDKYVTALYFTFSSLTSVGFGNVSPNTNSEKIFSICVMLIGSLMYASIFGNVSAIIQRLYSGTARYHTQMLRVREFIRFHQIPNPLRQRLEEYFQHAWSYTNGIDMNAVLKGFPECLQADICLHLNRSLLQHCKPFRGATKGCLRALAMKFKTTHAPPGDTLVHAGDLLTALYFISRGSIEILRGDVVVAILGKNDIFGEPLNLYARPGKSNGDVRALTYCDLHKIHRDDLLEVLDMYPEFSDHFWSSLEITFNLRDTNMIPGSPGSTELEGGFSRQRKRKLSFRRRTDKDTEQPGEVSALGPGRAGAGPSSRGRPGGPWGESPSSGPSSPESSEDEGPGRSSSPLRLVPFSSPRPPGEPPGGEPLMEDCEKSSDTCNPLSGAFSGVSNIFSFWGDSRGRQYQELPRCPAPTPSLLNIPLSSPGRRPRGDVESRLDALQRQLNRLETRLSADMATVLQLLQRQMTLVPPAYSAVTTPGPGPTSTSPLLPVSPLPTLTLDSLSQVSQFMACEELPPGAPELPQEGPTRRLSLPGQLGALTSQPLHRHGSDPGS

SMILES | hERG current change (%, negative = inhibition) at 10uM [%]
COc1ccc(C2=CC(c3ccc(C)cc3)n3nnnc3N2)cc1 (stereo not drawn) | -6.67
COc1ccc(-c2coc3cc(OC4OC(CO)C(O)C(O)C4O)ccc3c2=O)cc1 (stereo not drawn) | 4.06
COc1ccc(N(C(=O)C2CCCCC2)S(=O)(=O)c2cccc3cccnc23)cc1 | -20.7
COc1cc(NC(=O)CN2CCCCC2C)c(C)cc1[N+](=O)[O-] (stereo not drawn) | -18
COc1cc(/C=C2/C(=O)ON=C2C)ccc1OCc1ccccc1F | 2.22
COc1ccc(N2CCN(S(=O)(=O)c3ccc4c(c3)OCCO4)CC2)cc1 | 3.84
Cc1ccc(-c2[nH]c(=O)n3ccncc23)s1 | 13.7
CCN(CC)C(=O)Cn1cc(SCC(=O)NCc2ccco2)c2ccccc21 | -1.42
CCOc1ccc(S(=O)(=O)N2CCN(C)CC2)cc1NC(=O)c1ccccc1F | -48.5
CC(C)C(NS(=O)(=O)c1cccs1)C(=O)NCCN1CCN(c2ccccc2)CC1 (stereo not drawn) | -20.9
CC(C(N)=O)N1c2cccc3cccc(c23)S1(=O)=O (stereo not drawn) | 4.59
COc1ccc(C(=O)Nc2nnc(Cc3cccs3)s2)cc1OC | 0.689
Cc1ccc2cc(CN(CC3CCCO3)S(=O)(=O)c3c(C)ccc4nsnc34)c(=O)[nH]c2c1 (stereo not drawn) | -4.15
NC(=O)c1ccc(Oc2ccc3ccc(=O)oc3c2)c([N+](=O)[O-])c1 | -15.1
C=CCNC(=S)NCc1ccccc1OC | -10.1
COc1ccccc1NS(=O)(=O)c1cc(C(=O)NCC(C)(C)N2CCOCC2)ccc1C | -31.3
COc1ccc(C2C(C#N)=C(N)OC3=C2C(=O)CC(C)(C)C3)c(OC)c1OC (stereo not drawn) | 4.34
O=C(COc1ccc(S(=O)(=O)N2CCCCC2)cc1)N1CCCCCC1 | -6.75
Cc1ccc(CN(Cc2ccco2)C(=S)NCC(=O)NC2CC2)cc1 | -10.1
O=C(CSc1ccsc1[N+](=O)[O-])NCc1ccco1 | -5.43
CC/C(=N\NC(=O)c1ccccc1Cl)c1c(O)n(C2CCCCC2)c(=O)[nH]c1=O | 2.68
CC[C@@H](C)[C@H](NC(=O)Cc1c(C)c2cc3c(C)coc3c(C)c2oc1=O)C(=O)O | 6.21
Nc1ccc[n+](Cc2ccccn2)c1.[Br-] | 20.3

SMILES | hERG current change (%, negative = inhibition) at 10uM [%]
O=C(NCCCN1CCOCC1)c1ccc(CS(=O)(=O)c2c(Cl)cccc2Cl)o1 | 2.35
CCN(C(=O)c1ccc(Br)o1)C1CCS(=O)(=O)C1 (stereo not drawn) | 4.44
c1ccc2nc(-c3ccncc3)ccc2c1 | 23.4
CCOC(=O)c1ccc(Nc2cc(C)nc(C)c2C(=O)OCC)cc1.Cl | -62.6
Cc1cc(C)nc(N2CCCC(C(=O)Nc3ccc4c(c3)OCCO4)C2)n1 (stereo not drawn) | 14.4
O=c1c2ccccc2c(C=NCCCN2CCOCC2)c(O)n1Cc1ccc2c(c1)OCO2 | -34.3
CCCN1Cc2cccc(C(=O)N3CCN(c4ccccc4)CC3)c2C1=O | 6.02
O=C(CSc1nnc2ccccn12)NC(=O)Cc1ccccc1 | 29.1
COc1ccc(C)cc1NC(=O)C1CCCN(S(=O)(=O)c2cccc3nonc23)C1 (stereo not drawn) | 2.09
O=C(NNC(=O)c1cccc2ccccc12)c1ccccc1O | 4.19
OCC[C@@H]1C[C@H](O)[C@@H](O)[C@@]2(CCCO2)O1 | 1.51
CC(=O)OCCCCON1C(=O)c2ccccc2C1=O | 20.4
O=C(Nc1cccc(OC(=O)c2cccnc2)c1)c1cccnc1 | 5.55
COc1ccc(N=Cc2c(O)[nH]c3ccccc23)cc1 | 0.417
CC1CCc2nc3ccccc3c(C(=O)OCC(=O)N(C)C3CCS(=O)(=O)C3)c2C1 (stereo not drawn) | -2.95
Cc1c(CC(=O)O)c(=O)oc2cc(OCc3ccc(F)cc3Cl)ccc12 | 17.1
CCc1ccccc1OCC(=O)Nc1cccc(S(=O)(=O)NC2=NCCCCC2)c1 | -20.6
COc1cccc2c1OC1(CCN(C(C)C)CC1)N1N=C(c3cccnc3)CC21 (stereo not drawn) | -9.03
COc1ccc(Nc2cc(C)c3ccccc3n2)cc1 | 4.57
Fc1ccc(CSc2nncn2NCc2ccccc2)cc1 | -10.2
Cc1[nH]c2ccccc2c1C(=O)CN1CC=C(c2ccccc2)CC1 | -52.4
CCOC(=O)C1CCCN(c2cc(=O)n(-c3ccccc3Cl)c(=O)[nH]2)C1 (stereo not drawn) | 9.43
O=C(Nc1cccc(S(=O)(=O)NC2=NCCC2)c1)C1CCC1 | 9.46

SMILES | hERG current change (%, negative = inhibition) at 10uM [%]
O=C(NN1CCOCC1)c1ccco1 | 11
COc1cc(C2(O)CCCCC2C)cc(OC)c1OC (stereo not drawn) | 15.9
CSCCC(NC(=O)c1ccccc1)C(=O)O (stereo not drawn) | 12
O=C(NCC1COc2ccccc2O1)c1ccc(Cl)cc1 (stereo not drawn) | -10.8
CC1/C(=N/O)CC(c2ccco2)NC1c1ccco1 (stereo not drawn) | 15.5
CCc1ccc(C(=O)NC(=S)NCc2cccnc2)cc1 | -40.7
CN1CCN(S(=O)(=O)c2ccc3c(c2)NC(=O)C2CCCN32)CC1 (stereo not drawn) | 16.4
NC(=S)N/N=C1\CC(n2nnnc2-c2ccccc2)C2COC1O2 (stereo not drawn) | 8.14
CCCCOc1cccc(C(=O)O)c1 | -4.57
O=C(COC(=O)c1ccc(Cl)nc1)Nc1cccnc1Cl | 14.6
CCCC(=O)c1cc(-c2nc3ccccc3n2C)n(C)c1 | -20
O=C(Nc1ccc(CN2CCOCC2)cc1)c1ccccc1F | -1.31
CCn1c(SCC(=O)NCc2ccc3c(c2)OCO3)nnc1-c1ccco1 | -5.03
Cc1c(C)n(Cc2ccccc2)c2ncnc(NCCCN(C)C)c12 | -28.4
CCOc1cccc(-c2c(C(=O)N/N=C/c3ccco3)nnn2-c2nonc2N)c1 | 6.62
CCCCOC(=O)Nc1nc(C)c(C(=O)OCC)s1 | -3.4
NC(=O)c1cnn(C2CCS(=O)(=O)C2)c1 (stereo not drawn) | 14.3
O=C(O)COCC(=O)Nc1cc(C(F)(F)F)cc(C(F)(F)F)c1 | 3.82
O=c1c(Cc2ccc(Cl)cc2Cl)c(O)ccn1CC(F)(F)F | 12.7
CCN(CC)C(=O)c1cn(-c2ccccc2)nc1-c1ccc2c(c1)OCCO2 | -3.56
Nc1ccc(C(=O)N2CCN(S(=O)(=O)/C=C/c3ccccc3)CC2)cc1[N+](=O)[O-] | -43.9
CC(NC(=O)c1ccc2c(c1)OCO2)C(c1cccs1)N1CCOCC1 (stereo not drawn) | 4.45
CCN(CCCNC(=O)C1CCN(C(=O)c2cc3sccc3n2C)CC1)Cc1ccccc1 | -38.4

SMILES | hERG current change (%, negative = inhibition) at 10uM [%]
CC(CNS(=O)(=O)c1ccccc1)(c1ccccc1)N1CCCCC1 (stereo not drawn) | 4.54
Cc1cc(C)n(-c2nc3ccccc3nc2Nc2ccc3c(c2)OCO3)n1 | 13.8
CC1CCN(CC[C@H]2CCCN2S(=O)(=O)c2cccc(O)c2)CC1.Cl | -22.4
NNc1nc(-c2ccccc2Cl)nc2sc3c(c12)CCCC3 | 6.73
COc1ccc(-c2nnnn2C)cc1S(=O)(=O)NCc1ccccc1 | -13.9
C[C@H]1O[C@H]1P(=O)([O-])[O-].[Na+] | 12.1
Cc1ccc(C)c(S(=O)(=O)N2CCN(CC(=O)Nc3ccc4c(c3)CCC4)CC2)c1 | -0.408
CCOC(=O)C1CCN(C(=O)Cn2c(=O)oc3cc(S(=O)(=O)N4CCCC4)ccc32)CC1 | -4.92
COC(=O)c1cc2c(C)[nH]c(C)c2cc(C(=O)OC)c1=O | 1.72
O=C1OCCN1C(=O)[C@H]1[C@H](c2ccc([N+](=O)[O-])cc2)C(c2cccc(Cl)c2)=NN1c1ccccc1 | 5.99
CC1(C)CC(=O)C/C(=N/NC(=O)CCCOc2ccc(Cl)cc2Cl)C1 | -22.8
Cc1cc(NC(=O)CSCC(=O)N2CCN(c3cccc(C(F)(F)F)c3)CC2)no1 | -11.3
Cc1cc(=O)oc2cc(NC(=O)c3cc4ccccc4o3)ccc12 | -0.75
COCCNC(=O)/C(C#N)=C/c1c(F)cccc1Cl | 31.1
Cc1sc(N/N=C/C=C/c2ccccc2)nc1-c1ccccc1 | 8.54
CCc1ccc2[nH]c3nc(SCCN4CCOCC4)nnc3c2c1 | 4.48
CCN(CC)c1ccc(N2C(=O)/C(=C\c3cccnc3)SC2=S)cc1 | 8.51
CCOc1ccccc1C1C2CCCCC2(O)CCN1C(=O)c1cccs1 (stereo not drawn) | -15.5
Cn1c(C(=O)N2CCN(Cc3ccccc3)CC2)cc2c(=O)n(C)c3ccccc3c21 | -15.8
CN(CC1CCCO1)S(=O)(=O)c1ccc(C(=O)Nc2ccc3c(c2)OCO3)cc1 (stereo not drawn) | -5.12
CCOC(=O)c1sc2nc[nH]c(=O)c2c1C | 9.87
